Data as given in the supplement of paper PMC12217912.
The list shows a part of the results. Sequences were assembled here from the parent chain. Values near 0.05 are background.

B1: TEV protease; numbered along this chain (parent)
chain: MGESLFKGPRDYNPISSSICHLTNESDGHTTSLYGIGFGPFIITNKHLFRRNNGTLVVQSLHGVFKVKDTTTLQQHLVDGRDMIIIRMPKDFPPFPQKLKFREPQREERICLVTTNFQTKSMSSMVSDTSCTFPSGDGIFWKHWIQTKDGQCGSPLVSTRDGFIVGIHSASNFTNTNNYFTSVPKNFMELLTNQEAQQWVSGWRLNADSVLWGGHKVFMVKPEEPFQPVKEATQL

Variants of: B1
Experiment: raw area under fraction-flipped curve 0-4 h after induction (AUC4h, not background-subtracted), DNA-recorder readout of cleavage of the substrate (dimensionless); higher = more cleavage of the substrate by the protease variant
Conditions: temperature: 34 °C; time window: 0-4 h after rhamnose induction
Protocol: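 In vivo DNA recorder in E. coli TOP10(DE3) ΔrhaA at 34 °C. Each TEVp single-site mutant (parent TEVp 0) is paired with a single-site variant of the 7-mer TEVs (canonical ENLYFQ|S). The substrate sits between flexible linkers in a Bxb1-sfGFP-TEVs-SsrA fusion, so cleavage stabilises Bxb1 and speeds flipping of a recombination array, read by NGS. The value is the raw area under the fraction-flipped curve over 0-4 h after rhamnose induction (AUC4h), with ≥20 reads per time point. It is not background-subtracted; inactive controls average about 0.047.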
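Also: Bxb1 expression induced with 0.2% (w/v) L-rhamnose at OD600 near 0.5, cultures sampled hourly, flipped fraction per protease–substrate barcode pair counted by paired-end Illumina sequencing.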

Row | Variant | area with substrate EALYFQS | area with substrate ECLYFQS | area with substrate EDLYFQS | area with substrate EELYFQS | area with substrate EGLYFQS | area with substrate EILYFQS | area with substrate EKLYFQS | area with substrate ELLYFQS | area with substrate EMLYFQS | area with substrate EQLYFQS | area with substrate ERLYFQS | area with substrate ESLYFQS | area with substrate ETLYFQS | area with substrate EVLYFQS | area with substrate EWLYFQS | area with substrate EYLYFQS | area with substrate EFLYFQS | area with substrate EHLYFQS | area with substrate EPLYFQS
1 | I43L | 0.111 | 0.105 | 0.0984 | 0.117 | 0.0894 | 0.0903 | 0.122 | 0.0815 | 0.103 | 0.121 | 0.0969 | 0.0761 | 0.101 | 0.101 | 0.0919 | 0.109 |  |  | 
2 | I43N | 0.0471 | 0.0281 | 0.0528 |  |  | 0.052 | 0.0493 | 0.0508 | 0.0581 | 0.0487 | 0.0578 | 0.0376 | 0.0494 |  | 0.0491 | 0.0413 | 0.0328 | 0.0451 | 0.0551
3 | I43Q | 0.0458 | 0.0502 | 0.0534 | 0.0511 |  | 0.045 | 0.0336 | 0.0421 | 0.0528 | 0.0477 | 0.0856 | 0.0451 |  | 0.0465 | 0.0483 | 0.0313 |  | 0.0435 | 
4 | I43S | 0.0737 | 0.0494 | 0.0523 | 0.0543 |  | 0.0814 | 0.0481 | 0.0525 |  | 0.0559 | 0.0651 | 0.0564 |  | 0.0554 | 0.0484 | 0.0496 | 0.0626 | 0.0896 | 0.0515
5 | T44P | 0.0481 | 0.0389 | 0.0423 | 0.0615 |  | 0.0328 |  |  |  | 0.049 | 0.0413 | 0.0543 |  |  | 0.0252 | 0.0213 |  | 0.0298 | 
6 | T44S | 0.111 | 0.0979 | 0.106 | 0.0909 | 0.0807 |  | 0.097 | 0.0766 | 0.107 | 0.112 | 0.102 | 0.0948 | 0.11 | 0.099 | 0.0824 | 0.0903 |  | 0.0975 | 0.104
7 | N45T | 0.0822 | 0.0786 | 0.0977 |  | 0.0648 | 0.0616 | 0.0807 | 0.0608 |  | 0.0873 | 0.0733 | 0.0831 | 0.0833 | 0.0697 | 0.0718 | 0.0744 | 0.0979 | 0.0515 | 0.112
8 | K46A | 0.106 | 0.123 | 0.159 | 0.159 | 0.109 | 0.0953 | 0.138 | 0.12 | 0.125 | 0.122 |  | 0.125 | 0.0917 | 0.127 | 0.153 | 0.151 |  | 0.153 | 
9 | K46C | 0.141 | 0.0973 | 0.131 | 0.124 | 0.0862 | 0.0855 | 0.0871 | 0.0844 |  | 0.108 | 0.11 | 0.1 |  |  | 0.0887 | 0.0939 |  | 0.103 | 0.0995
10 | K46M | 0.0945 | 0.0763 | 0.0723 | 0.0812 | 0.0619 | 0.0706 | 0.0806 | 0.0749 |  | 0.0866 |  | 0.0787 | 0.0814 | 0.0884 | 0.103 | 0.0023 |  | 0.0874 | 0.111
11 | K46T | 0.0922 | 0.0759 | 0.117 | 0.0935 |  | 0.0644 | 0.0758 | 0.0803 | 0.085 | 0.0547 | 0.0836 | 0.0804 |  | 0.0671 |  |  | 0.0679 | 0.0992 | 
12 | H47C | 0.0573 | 0.062 | 0.0648 | 0.0383 |  | 0.0558 | 0.0726 | 0.0636 |  |  | 0.0583 | 0.0577 | 0.0376 | 0.0599 |  |  | 0.0544 |  | 
13 | H47E | 0.0656 | 0.0602 | 0.0565 | 0.0709 |  | 0.0645 |  | 0.0708 | 0.0607 | 0.0488 | 0.0349 | 0.057 |  | 0.0451 |  | 0.0453 |  | 0.0675 | 0.0462
14 | F49A | 0.0388 | 0.0651 | 0.0748 | 0.0634 | 0.0464 | 0.0531 |  | 0.057 | 0.0503 | 0.0569 | 0.0529 | 0.0538 | 0.0581 | 0.0775 | 0.0557 | 0.0579 |  | 0.0393 | 
15 | F49I | 0.0599 | 0.063 | 0.0788 | 0.0594 | 0.0587 | 0.0589 | 0.0833 |  | 0.0957 | 0.104 | 0.0658 | 0.0663 | 0.0732 | 0.0762 | 0.053 | 0.0676 | 0.0559 | 0.0567 | 0.0632
16 | F49M | 0.0781 | 0.0698 | 0.0822 |  | 0.0602 | 0.0434 | 0.0716 | 0.0652 | 0.0617 | 0.0672 | 0.0626 | 0.0684 |  | 0.0633 | 0.0645 | 0.0807 | 0.0691 | 0.0637 | 0.0774
17 | R50H | 0.123 | 0.108 | 0.144 | 0.16 |  | 0.0852 | 0.116 |  | 0.11 | 0.144 | 0.126 |  |  | 0.0918 | 0.0997 | 0.125 |  |  | 0.131
18 | R50K | 0.132 | 0.0936 | 0.154 |  |  | 0.0978 | 0.0954 | 0.0935 | 0.118 | 0.0799 | 0.106 | 0.0886 | 0.0729 |  | 0.112 | 0.102 | 0.0762 | 0.1 | 0.124
19 | R50P | 0.0871 | 0.0796 | 0.108 | 0.107 |  | 0.0766 | 0.0614 | 0.0836 | 0.0879 | 0.12 | 0.0963 | 0.0868 | 0.142 | 0.0782 | 0.0978 | 0.067 |  | 0.0804 | 0.104
20 | N52C | 0.0953 | 0.0674 | 0.0659 | 0.0613 |  | 0.0666 | 0.0835 |  | 0.0757 | 0.0811 | 0.0767 | 0.0757 | 0.0667 | 0.0801 |  | 0.067 |  | 0.0344 | 0.0763
21 | N52P | 0.0582 | 0.0651 | 0.105 | 0.0755 | 0.044 | 0.0618 | 0.0723 |  |  | 0.076 | 0.0946 | 0.0847 |  | 0.0595 |  | 0.0643 |  |  | 0.0669
22 | N52V | 0.0685 | 0.0773 | 0.0817 | 0.0773 | 0.0547 | 0.0781 | 0.0692 |  |  | 0.0698 | 0.0716 | 0.0668 | 0.0661 | 0.0581 |  | 0.0822 |  | 0.0728 | 
23 | N53C | 0.0989 | 0.115 | 0.104 | 0.105 | 0.0791 | 0.074 |  | 0.0859 |  | 0.0932 | 0.087 | 0.101 |  |  | 0.123 | 0.0907 |  | 0.0978 | 0.0432
